Laboratory results from PubChem BioAssay AID328 (DTP/NCI, 2004).
Toxic doses and inconclusive results are not listed. Not every entry of the source has a single result; some have several. The other results are left out here. There may be further records. Values given together differ, and nothing given here explains why; they may come from other doses, times, organisms or constructs than stated.

Test system: BDF1 mice, P388 leukemia ip, median survival T/C
Test: NCI In Vivo Anticancer Drug Screen. Data for tumor model P388 Leukemia (intraperitoneal) in B6D2F1 (BDF1) mice
Conditions: endpoint: median survival time, higher = longer survival
Summary of the method: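 Antitumour effect was judged in vivo: survival in drug-treated mice, normalised to that of vehicle-dosed controls, gives the reported T/C.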

In the case of C=CCSc1nc(N)nc2c1ncn2C1CC(O)C(CO)O1 (configuration not stated), the T/C (dose: 200.0 mg/kg/injection, schedule: Q01DX009 (ip), vehicle: saline) was 118 % of control and 152 % of control.
In the case of CC(CN1CC(=O)NC(=O)C1)N1CC(=O)NC(=O)C1 (configuration not stated), the T/C (dose: 100.0 mg/kg/injection, schedule: Q04DX003 (ip), vehicle: Klucel (hydroxypropylcellulose) (HPC)) was 123 % of control and 151 % of control and the T/C (dose: 800.0 mg/kg/injection, schedule: Q04DX003 (ip), vehicle: Klucel (hydroxypropylcellulose) (HPC)) was 86 % of control and 159 % of control.
For COc1cc([C@@H]2c3cc4c(cc3[C@@H](OC3OC5COC(C)OC5C(O)C3O)[C@H]3COC(=O)[C@H]23)OCO4)cc(OC)c1O (some centres not stated), the T/C (dose: 20.0 mg/kg/injection, schedule: Q04DX003 (ip), vehicle: saline) was 112 % of control and 200 % of control and the T/C (dose: 24.0 mg/kg/injection, schedule: Q04DX003 (ip), vehicle: saline) was 112 % of control and 200 % of control.
COc1cccc2c1C(=O)c1c(O)c3c(c(O)c1C2=O)C[C@@](O)(C(C)=O)C[C@@H]3OC1CC(N)C(O)C(C)O1 (some centres not stated) was tested, and the T/C (dose: 0.39 mg/kg/injection, schedule: Q01DX009 (ip), vehicle: water) was 117 % of control and 153 % of control and the T/C (dose: 0.78 mg/kg/injection, schedule: Q01DX009 (ip), vehicle: water) was 112 % of control and 177 % of control.
In the case of COc1cc2c(cc1OC)C(OC)N(C)c1c-2ccc2cc3c(cc12)OCO3 (configuration not stated), the T/C (dose: 80.0 mg/kg/injection, schedule: Q01DX009 (ip), vehicle: saline with Tween-80) was 118 % of control and 165 % of control and the T/C (dose: 120.0 mg/kg/injection, schedule: Q01DX009 (ip), vehicle: saline with Tween-80) was 86 % of control and 175 % of control.
COc1cccc2c1C(=O)c1c(O)c3c(c(O)c1C2=O)C[C@@](O)(/C(CO)=N/NC(=O)c1ccc(Cl)c(Cl)c1)C[C@@H]3OC1CC(N)C(O)C(C)O1 (some centres not stated) was tested, and the T/C (dose: 1.56 mg/kg/injection, schedule: Q01DX009 (ip), vehicle: water) was 96 % of control and 191 % of control and the T/C (dose: 12.5 mg/kg/injection, schedule: Q01DX009 (ip), vehicle: water) was 106 % of control and 182 % of control.
For CC[C@](O)(C(=O)O)c1cc2n(c(=O)c1CO)Cc1cc3ccccc3nc1-2, the T/C (dose: 75.0 mg/kg/injection, schedule: Q01DX001 (ip), vehicle: saline) was 60 % of control and 168 % of control.
